# Results as given in the supplement of paper PMC8728848.
# This is one part of the list.
# B1: rEtpA (Escherichia coli) (protein)
# chain: MNRIYKLKFDKRRNELVVVSEITTGVGNAKATGSVEGEKSPRRGVRAMALSLLSGMMIMAHPAMSANLPTGGQIVAGSGSIQTPSGNQMNIHQNSQNMVANWNSFDIGKGNTVQFDQPSSSAVALNRVVGGGESQIMGNLKANGQVFLVNPNGVLFGEGASVSTSGFVASTRDIKNDDFMNRRYTFSGGQKAGAAIVNQGELTTNAGGYIVLAADRVSNSGTIRTPGGKTVLAASERITLQLDNGGLMSVQVTGDVVNALVENRGLVSARDGQVYLTALGRGMLMNTVLNVSGVVEASGMHRQDGNIVLDGGDSGVVHLSGTLQADNASGQGGKVVVQGKNILLDKGSNITATGGQGGGEVYVGGGWQGKDSNIRNADKVVMQGGARIDVSATQQGNGGTAVLWSDSYTNFHGQISAKGGETGGNGGRVETSSHGNLQAFGTVSASAKKGKAGNWLLDSADITIVNGSNVSKTETTQSPPHTQFAPTAAGSAVSNTSINNRLNNGTSVTILTHRTRTGTAQGGNITVNAAINKSNGSDVNLTLQAGGNITVNNSITSTEGKLNVNLSGARTSNGSITISNNANITTNGGDITVGTTNTSNRVNISINNTTLNASNGNIQLTGTGTDSGILFAGNNRLTASNIALTGNSTSGNAINLTGTATLNATNNITLTGSSTSGNAINLKGNNTLTASNITLTGESTSGNAINLTDTTGTTTLNATNNITMQGTRVQIKHSNITAGNFALNATVAGSEISNTTLTATNNINLAAKTNSASSGVYLKDARITSTNGSITANGTATANGKATHLDGNVTLNASNGRIKLTGNGHGSASGILFAGNNRLTASNIALTGNSTSGNAINLTGTATLNATNDITLTGSSTSGNAINLTGTATLNATNNITLTGSSTSGNAINLKGNNTLTASNITLTGESTSGNAINLTDTTGTTTLNATNNITMQGTRVQIKHSNITAGNFALNATVAGSEISNTTLTATNNINLAAKTNSASSGVYLKDARITSTNGSITANGTATANGKATHLDGNVTLNASNGRIKLTGNGHGSASGILFAGNNRLTASNIALTGNSTSGNAINLTGTATLNATNDITLTGSSTSGNAINLTGTATLNATNNITLTGSSTSGNAINLKGNNTLTASNITLTGESTSGNAINLTDTTGTTTLNATNNITMQGTRVQIKHSNITAGNFALNATVAGSEISNTTLTATNNINLAAKTNSASSGVYLKDARITSTNGSITANGTATANGKATHLDGNVTLNASNGRIKLTGNGHGSASGILFAGNNRLTASNIALTGNSTSGNAINLTGTATLNATNDITLTGSSTSGNAINLTGTATLNATNNITLTGSSTSGNAINLKGNNTLTASNITLTGESTSGNAINLTDTTGTTTLNATNNITMQGTRVQIKHSNITAGNFALNATVAGSEISNTTLTATNNINLAAKTNSASSGVYLKDARITSTNGSITTNGTATANGKATHLDGNVTLNASNGRIKLTGNGHGSASGILFAGNNRLTASNIALTGNSTSGNAINLTGTATLNATNDITLTGSSTSGNAINLTGTATLNATNNITLTGSSTSGNAINLKGNNTLTASNITLTGESTSGNAINLTDTTGTTTLNATNNITMQGTRVQIKHSNITAGNFALNATVAGSEISNTTLTATNNINLAAKTNSASSGVYLKDARITSTNGSITANGTAPANDNATYLDGNVTLNASNGSIKLTGNGNGSTSGILFAGNNTLTASNITLTGNSEVYWQKLGPEQKLISEEDLNSAVDHHHHHH
# Experiments:
# Assay in all cases: glycan array binding signal (z-score within array); higher = stronger binding
# Details in all cases: glycan notation: IUPAC condensed, linker removed
# [1] = target: Fuc(a1-2)Gal(b1-4)GlcNAc(b1-3)Gal(b1-4)GlcNAc(b1-3)Gal(b1-4)GlcNAc
# In short: (§1)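 The Consortium for Functional Glycomics database supplied 3228 glycan arrays, of which those lacking an available protein sequence were dropped. The binding signal, a within-array Z-score, was averaged across arrays of the same protein sequence and across linkers. Negative scores can be read as non-binding.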
# [2] = target: Fuc(a1-2)Gal(b1-4)GlcNAc(b1-3)GalNAc
# In short: as §1
# [3] = target: Fuc(a1-2)Gal(b1-4)GlcNAc(b1-3)[Fuc(a1-2)Gal(b1-4)GlcNAc(b1-6)]GalNAc
# In short: as §1
# [4] = target: Fuc(a1-2)Gal(b1-4)GlcNAc(b1-3)[Fuc(a1-3)[Gal(b1-4)]GlcNAc(b1-6)]Gal(b1-4)Glc
# In short: as §1
# [5] = target: Fuc(a1-2)Gal(b1-4)GlcNAc(b1-6)GalNAc
# In short: as §1
# [6] = target: Fuc(a1-2)Gal(b1-4)GlcNAc6S
# In short: as §1
# [7] = target: Fuc(a1-2)Gal(b1-4)[Fuc(a1-3)]GlcNAc
# In short: as §1
# [8] = target: Fuc(a1-2)Gal(b1-4)[Fuc(a1-3)]GlcNAc(b1-2)Man(a1-3)[Fuc(a1-2)Gal(b1-4)[Fuc(a1-3)]GlcNAc(b1-2)Man(a1-6)]Man(b1-4)GlcNAc(b1-4)[Fuc(a1-6)]GlcNAc
# In short: as §1
# [9] = target: Fuc(a1-2)Gal(b1-4)[Fuc(a1-3)]GlcNAc(b1-2)[Fuc(a1-2)Gal(b1-4)[Fuc(a1-3)]GlcNAc(b1-4)]Man(a1-3)[Fuc(a1-2)Gal(b1-4)[Fuc(a1-3)]GlcNAc(b1-2)Man(a1-6)]Man(b1-4)GlcNAc(b1-4)GlcNAc
# In short: as §1
# [10] = target: Fuc(a1-2)Gal(b1-4)[Fuc(a1-3)]GlcNAc(b1-3)Gal(b1-4)[Fuc(a1-3)]GlcNAc
# In short: as §1
# [11] = target: Fuc(a1-2)Gal(b1-4)[Fuc(a1-3)]GlcNAc(b1-3)Gal(b1-4)[Fuc(a1-3)]GlcNAc(b1-3)Gal(b1-4)[Fuc(a1-3)]GlcNAc
# In short: as §1
# [12] = target: Fuc(a1-2)Gal(b1-4)[Fuc(a1-3)]GlcNAc(b1-3)GalNAc
# In short: as §1
# [13] = target: Fuc(a1-2)Gal(b1-4)[Fuc(a1-3)]GlcNAc(b1-3)[Neu5Ac(a2-6)Gal(b1-4)GlcNAc(b1-6)]Gal(b1-4)Glc
# In short: as §1
# [14] = target: Fuc(a1-2)Gal3S(b1-4)GlcNAc
# In short: as §1
# [15] = target: Fuc(a1-2)Gal6S(b1-3)GlcNAc
# In short: as §1
# [16] = target: Fuc(a1-2)Gal6S(b1-3)GlcNAc6S
# In short: as §1
# Fuc(a1-2)Gal6S(b1-4)Glc = target: Fuc(a1-2)Gal6S(b1-4)Glc
# In short: as §1
# [17] = target: Fuc(a1-2)Gal6S(b1-4)Glc6S
# In short: as §1
# Fuc(a1-2)[Gal(a1-3)]Gal = target: Fuc(a1-2)[Gal(a1-3)]Gal
# In short: as §1
# [18] = target: Fuc(a1-2)[Gal(a1-3)]Gal(b1-3)GalNAc
# In short: as §1
# [19] = target: Fuc(a1-2)[Gal(a1-3)]Gal(b1-3)GalNAc(b1-3)Gal(a1-4)Gal(b1-4)Glc
# In short: as §1
# [20] = target: Fuc(a1-2)[Gal(a1-3)]Gal(b1-3)GlcNAc
# In short: as §1
# [21] = target: Fuc(a1-2)[Gal(a1-3)]Gal(b1-3)GlcNAc(b1-2)Man(a1-3)[Fuc(a1-2)[Gal(a1-3)]Gal(b1-3)GlcNAc(b1-2)Man(a1-6)]Man(b1-4)GlcNAc(b1-4)GlcNAc
# In short: as §1
# [22] = target: Fuc(a1-2)[Gal(a1-3)]Gal(b1-3)GlcNAc(b1-2)Man(a1-3)[Fuc(a1-2)[Gal(a1-3)]Gal(b1-3)GlcNAc(b1-2)Man(a1-6)]Man(b1-4)GlcNAc(b1-4)[Fuc(a1-6)]GlcNAc
# In short: as §1
# [23] = target: Fuc(a1-2)[Gal(a1-3)]Gal(b1-3)GlcNAc(b1-3)GalNAc
# In short: as §1
# [24] = target: Fuc(a1-2)[Gal(a1-3)]Gal(b1-3)GlcNAc(b1-6)GalNAc
# In short: as §1
# [25] = target: Fuc(a1-2)[Gal(a1-3)]Gal(b1-4)Glc
# In short: as §1
# [26] = target: Fuc(a1-2)[Gal(a1-3)]Gal(b1-4)GlcNAc
# In short: as §1
# [27] = target: Fuc(a1-2)[Gal(a1-3)]Gal(b1-4)GlcNAc(b1-2)Man
# In short: as §1
# [28] = target: Fuc(a1-2)[Gal(a1-3)]Gal(b1-4)GlcNAc(b1-2)Man(a1-3)[Fuc(a1-2)[Gal(a1-3)]Gal(b1-4)GlcNAc(b1-2)Man(a1-6)]Man(b1-4)GlcNAc(b1-4)GlcNAc
# In short: as §1
binder,measurement,setting,value
B1,glycan array binding signal (z-score),[1],-0.326
same,glycan array binding signal (z-score),[2],-0.377
same,glycan array binding signal (z-score),[3],-0.27
same,glycan array binding signal (z-score),[4],-0.238
same,glycan array binding signal (z-score),[5],-0.296
same,glycan array binding signal (z-score),[6],-0.341
same,glycan array binding signal (z-score),[7],-0.161
same,glycan array binding signal (z-score),[8],-0.245
same,glycan array binding signal (z-score),[9],-0.225
same,glycan array binding signal (z-score),[10],-0.345
same,glycan array binding signal (z-score),[11],-0.333
same,glycan array binding signal (z-score),[12],-0.319
same,glycan array binding signal (z-score),[13],-0.367
same,glycan array binding signal (z-score),[14],-0.293
same,glycan array binding signal (z-score),[15],-0.038
same,glycan array binding signal (z-score),[16],1.11
same,glycan array binding signal (z-score),Fuc(a1-2)Gal6S(b1-4)Glc,-0.205
same,glycan array binding signal (z-score),[17],-0.13
same,glycan array binding signal (z-score),Fuc(a1-2)[Gal(a1-3)]Gal,-0.351
same,glycan array binding signal (z-score),[18],0.413
same,glycan array binding signal (z-score),[19],-0.241
same,glycan array binding signal (z-score),[20],0.328
same,glycan array binding signal (z-score),[21],-0.364
same,glycan array binding signal (z-score),[22],0.339
same,glycan array binding signal (z-score),[23],0.231
same,glycan array binding signal (z-score),[24],-0.374
same,glycan array binding signal (z-score),[25],-0.166
same,glycan array binding signal (z-score),[26],-0.275
same,glycan array binding signal (z-score),[27],-0.076
same,glycan array binding signal (z-score),[28],0.401
